Source: PubChem BioAssay AID485294 (National Center for Advancing Translational Sciences (NCATS), 2010)
Screen size: about 370,000 compounds; about 150 (0.041%) were called active. Inconclusive means that the source gave no clear call. Such entries were picked first, then a sample of the others. The call rests on the fitted dose curve; in most records, active means well fitted inhibition curve with a large enough effect; inconclusive means small, poorly fitted or top-dose-only effect; inactive means flat fitted curve, though single readings scatter. Potencies of inconclusive entries are left out as doubtful fits.

What follows are compounds tested against Beta-lactamase (Escherichia coli (strain K12)) (UniProt P00811) (assay: qHTS Inhibitors of AmpC Beta-Lactamase (assay with detergent)). Conditions: AmpC hydrolysis of nitrocefin, absorbance 480 nm, 0.01% Triton; series mostly up to 114 µM.
In short: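 AmpC (5.3 nM in the dispensed reagent) in 20 mM phosphate pH 7.0 with 0.01% (detergent screen) or 0.0001% Triton X-100 was preincubated with compounds for 15 min at room temperature. Nitrocefin was then added from an 800 uM solution, and hydrolysis was followed at 480 nm.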
Further: nearly all actives have a fitted effect of over 25% in size.
Potency means the concentration at half of the fitted maximal effect; tags describe the fitted curve by direction and shape.

Chain of UniProt P00811 (P00811 whole entry, looked up): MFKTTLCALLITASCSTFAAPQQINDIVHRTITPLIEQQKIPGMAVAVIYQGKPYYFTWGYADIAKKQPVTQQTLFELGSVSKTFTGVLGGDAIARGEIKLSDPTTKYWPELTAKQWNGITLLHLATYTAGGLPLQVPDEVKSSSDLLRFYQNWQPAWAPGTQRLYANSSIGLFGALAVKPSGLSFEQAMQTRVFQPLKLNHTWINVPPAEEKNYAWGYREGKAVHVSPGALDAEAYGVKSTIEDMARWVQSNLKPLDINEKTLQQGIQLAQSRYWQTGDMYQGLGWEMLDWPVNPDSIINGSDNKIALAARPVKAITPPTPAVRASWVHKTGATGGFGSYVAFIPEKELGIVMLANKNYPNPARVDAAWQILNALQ

SMILES | Potency
O=C(CNC(=O)c1ccccc1F)NCc1cccnc1 | inactive
CCN(CC)C(=O)c1sc2c(c1C)c(=O)n(-c1ccc(C)c(C)c1)c(=O)n2Cc1cccc(Cl)c1 | inactive
COc1ccc(N(C(C)C(=O)N/N=C/c2ccc(OCC(C)C)cc2)S(C)(=O)=O)cc1 (configuration not stated) | inconclusive [inhibitor, full curve]
CCCCCCc1cc2cc(S(=O)(=O)c3ccc(F)c(Cl)c3)c(=O)oc2cc1O | inconclusive [inhibitor, full curve]
CS(=O)(=O)c1nc(S(=O)(=O)c2ccc(Cl)cc2)c(N2CCN(CCO)CC2)s1 | inactive
O=C(OC1CCCCC1=O)c1cccc(S(=O)(=O)N2CCCCC2)c1 (configuration not stated) | inconclusive [inhibitor, full curve]
Cc1cccc2c(=O)c(C(=O)NCCCN3CCOCC3)c[nH]c12 | inconclusive [inhibitor, partial curve, poor fit]
CC(C)CN1CCN(CCCc2ccccc2)C(CCO)C1 (configuration not stated) | inconclusive [inhibitor, partial curve, poor fit]
C=CCSC(=C(C#N)C#N)c1cc2c([nH]1)CCCC2 | inactive
COc1cccc(NC(=O)Nc2cccc(C(=O)O)c2)c1 | inactive
COc1cccc(-c2nn(-c3ccc(C)cc3)cc2C(=O)NCC2CCCO2)c1 (configuration not stated) | inconclusive [inhibitor, full curve, poor fit]
Cc1cccc(NC(=O)c2cc(-c3c(C)cc(C)cc3O)n[nH]2)c1 | inconclusive [inhibitor, full curve, poor fit]
O=C(CN1c2ccccc2Sc2ccccc21)NNC(=S)Nc1ccc(Cl)cc1 | inactive
COc1ccc(/C=N/NC(=O)CCc2n[nH]c(=O)[nH]c2=O)cc1OC | inconclusive [inhibitor, single point]
N#C/C(=C\c1ccc(OC(=O)c2cccs2)cc1)c1nc2ccccc2[nH]1 | inactive
Cc1cc(OCC(=O)N2CCC(C(=O)O)CC2)c2c3c(c(=O)oc2c1)CCCC3 | inconclusive [inhibitor, partial curve]
CCn1nc(C(=O)N2CCc3ccccc32)c2ccccc2c1=O | inconclusive [inhibitor, partial curve, poor fit]
COc1ccccc1CC1CC(=O)N(c2ccccc2)C1=O (configuration not stated) | inconclusive [inhibitor, full curve, poor fit]
O=C(NC1CCCC1)C(c1ccc(F)cc1)N(C(=O)c1csnn1)c1ccccc1F (configuration not stated) | inconclusive [inhibitor, full curve]
COc1ccccc1CNC(=O)CCc1ccccc1 | inconclusive [inhibitor, partial curve, poor fit]
CCOc1ccc(S(=O)(=O)n2ccc(C)n2)cc1 | inconclusive [inhibitor, partial curve, poor fit]

SMILES | Potency
c1ccc(CCCN2CCN(c3ccccc3)CC2)cc1 | inconclusive [inhibitor, full curve]
O=c1[nH]c(=S)n(Cc2ccc(F)cc2)c(O)c1C=NCC1CCCO1 (configuration not stated) | inconclusive [inhibitor, full curve, poor fit]
Cc1cc(C)c(S(=O)(=O)N(C)CC(N)=O)c(C)c1 | inconclusive [inhibitor, single point]
Cc1cc(C)cc(NC(=O)NC2CCN(CC(=O)Nc3cccc(Cl)c3C)CC2)c1 | inconclusive [inhibitor, partial curve]
O=C(NCCc1ccccc1)C(=O)c1cn(CC(=O)N2CCCC2)c2ccccc12 | inconclusive [inhibitor, single point]
COc1ccc(C(=O)C2CCCN(C(=O)c3cc(C)nc(C)n3)C2)cc1OC (configuration not stated) | inactive
CN(C)c1nc(N2CCOCC2)nc(N(c2ccccc2)c2ccccc2)n1 | inconclusive [inhibitor, partial curve]
O=c1c2cn[nH]c2nc(SCc2ccccc2F)n1-c1ccc(Br)cc1 | inconclusive [inhibitor, partial curve, poor fit]
COc1ccc2c(c1)C(SCC(=O)NCCc1ccc(Cl)cc1)CC(C)(C)O2 (configuration not stated) | inactive
CN1CCN(c2ccc(S(=O)(=O)N3CCCCC3)cc2NC(=O)/C=C/c2ccc(OC(F)F)cc2)CC1 | inconclusive [inhibitor, full curve, poor fit]
CCC(CC)C(=O)Nc1cccc(C(=O)N2CCOCC2)c1 | inconclusive [inhibitor, full curve, poor fit]
CCN(CC)CCNC(C(=O)Nc1ccc([N+](=O)[O-])cc1Br)c1ccccc1 (configuration not stated) | inconclusive [inhibitor, partial curve, poor fit]
CCCN1CCC(N2CCCC(C(=O)O)C2)CC1 (configuration not stated) | inconclusive [inhibitor, single point]
COC(=O)C1CCN(S(=O)(=O)c2ccc(OC)cc2)CC1 | inconclusive [inhibitor, single point]
Cc1cccc(N2C(=O)CC(N3CCOCC3)C2=O)c1 (configuration not stated) | inconclusive [inhibitor, full curve, poor fit]
CCN1CCN(C(=O)c2ccc(CSc3ccc(C)cc3)cc2)CC1 | inactive
CN(C)/C=N/c1cc(=O)n(C)c(=O)n1Cc1ccccc1 | inconclusive [inhibitor, partial curve, poor fit]
Cc1cc(Oc2ccc(C(F)(F)F)cc2[N+](=O)[O-])c2c3c(c(=O)oc2c1)CCC3 | inconclusive [inhibitor, partial curve, poor fit]
Cc1ccc(C)c(N2N=C(C(=O)Nc3cccc(S(=O)(=O)N4CCCCC4)c3)CCC2=O)c1 | inactive
CCN1CCN(c2cc(N3CCCC3)c([N+](=O)[O-])cc2F)CC1 | inconclusive [inhibitor, full curve]
C=CCOC(=O)COc1cc(C)cc2oc(=O)c3c(c12)CCC3 | inconclusive [inhibitor, full curve, poor fit]
